Experimental data from PubChem BioAssay AID686978 (National Center for Advancing Translational Sciences (NCATS), 2013).
Screen size: about 420,000 compounds; about 64,000 (15%) were called active. The shares of active, inactive and inconclusive entries below differ from those in the screen. Calls come from the whole dose curve; as a rule, active = well fitted inhibition curve with a large enough effect; inconclusive = small, poorly fitted or top-dose-only effect; inactive = flat fitted curve, though single readings scatter. No potency is given beside an inconclusive call; the fits are too rough.

Assay: qHTS for Inhibitors of human tyrosyl-DNA phosphodiesterase 1 (TDP1): qHTS in cells in absence of CPT; note: nearly all actives have a fitted effect of over 55% in size
Settings: DT40 Tdp1-/- hTDP1 cells, no CPT, ATP luminescence, 48 h; activity change, negative = growth inhibition: at 46.2 µM (top of the series) unless noted
Method in brief: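 Stably hTDP1-transfected Tdp1-null chicken DT40 cells were treated with library compounds minus camptothecin and grown for at least 48 hr at 37 °C, after which cellular ATP was quantified by luminescence.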
% is set by controls: 0 for no effect and ±100 for the full control effect; potency is the fitted concentration of half-maximal effect; tags give direction and shape of the fitted curve.

Row | SMILES | Potency | activity change, negative = growth inhibition
1 | Cc1ccc(-c2ccc(=O)n(CCC(=O)NCc3ccccn3)n2)cc1 | inconclusive [inhibitor, single point] | –
2 | Cc1ccc(-c2nc3nc(C)cc(N4CCN(c5cccc(C)c5)C(C)C4)n3n2)cc1 (centres undefined) | inconclusive [inhibitor, single point] | –
3 | Cc1ccc(CNC(=O)C2CCCCN2S(=O)(=O)c2ccccc2)cc1 (centres undefined) | inconclusive [inhibitor, single point] | –
4 | CCCCNC(=O)Cn1ncc2c(C)n(Cc3cccc(Cl)c3)c(C)c2c1=O | active: 20.6 µM | –
5 | CC1CC(C)(C)NC(=S)N1CC(=O)NCc1ccc2c(c1)OCO2 (centres undefined) | inactive | –
6 | CCn1ncc(Br)c1C(=O)Nc1ccc(F)c([N+](=O)[O-])c1 | inconclusive [inhibitor, single point] | –
7 | S=c1[nH]nc(-c2ccco2)n1/N=C/C=C/c1ccco1 | inconclusive [inhibitor, partial curve] | –
8 | Cc1cccc(NC(=O)c2ccc(S(=O)(=O)NCc3cccnc3)cc2)c1C | inconclusive [inhibitor, single point] | –
9 | COc1ccccc1-n1c(SCC(=O)N2CCCCC2)nnc1-c1ccccc1O | inconclusive [inhibitor, partial curve] | –
10 | CC(C)OC(=O)C(C#N)c1nc2ccccc2nc1N1CCCC1 (centres undefined) | – | inconclusive: -36.1% [inhibitor]
11 | Cc1nnc2c(SC(C)C)nc3ccccc3n12 | inconclusive [inhibitor, single point] | –
12 | CCN1C(=O)[C@H]2[C@@H](c3ccc(-c4cccc(Cl)c4)cc3)N[C@@](C)(C(=O)OC)[C@H]2C1=O | active: 13 µM | –
13 | CCC(C(=O)OC)n1cnc2c(nnn2-c2ccccc2)c1=O (centres undefined) | inactive | –
14 | Cc1cc(S(=O)(=O)N2CCCCC2CCNC(=O)C(=O)NCC2CCCO2)ccc1F (centres undefined) | inconclusive [inhibitor, single point] | –
15 | COc1ccc(OC)c(NC(=O)C(=O)N/N=C(\C)CC(=O)Nc2ccc(Cl)cn2)c1 | inactive | –
16 | COc1ccc(-c2cc(=O)oc3cc(OCC(=O)NCC4CCC(C(=O)O)CC4)ccc23)cc1 (centres undefined) | inactive | –
17 | CCOC(=O)Cn1c(N2CCOCC2)nc2c1c(=O)[nH]c(=O)n2C | inconclusive [inhibitor, single point] | –
18 | COc1cccc(-c2cnc3c(NC(C)=O)cc(-c4cccc(NS(C)(=O)=O)c4)cn23)c1 | active: 23.1 µM | –
19 | O=C(Cc1ccc(NC(=O)N2CCCCc3ccccc32)cc1)Nc1ccccc1Br | active: 20.6 µM | –
20 | CC(=O)c1ccc(NC(=S)NCCc2cccc(Cl)c2)cc1 | inconclusive [inhibitor, single point] | –
21 | CC(C)C(=O)N(Cc1ccc2c(c1)OCO2)Cc1ccccn1 | inconclusive [inhibitor, single point] | –
22 | O=C(NCc1ccccc1)C1=C[C@H](c2ccc(Br)cc2)C[C@H](OCCCCO)O1 | inconclusive [inhibitor, single point] | –
23 | Cc1ccc(Cl)cc1NC(=O)c1cc(-c2ccc3c(c2)OCCO3)on1 | inconclusive [inhibitor, partial curve] | –

Row | SMILES | Potency | activity change, negative = growth inhibition
24 | COc1ccc(OC)c(CN2CCN(C(=O)c3ccc(C)c(S(=O)(=O)Nc4ccccc4OC)c3)CC2)c1 | inconclusive [inhibitor, single point] | –
25 | CCCCN(CC)S(=O)(=O)c1ccc(C(=O)Nc2nnc(-c3cccs3)o2)cc1 | active: 10.3 µM | –
26 | CC(=O)NS(=O)(=O)c1ccc(NC(=O)CC(C)c2ccccc2)cc1 (centres undefined) | inactive | –
27 | Cc1ccc(S(=O)(=O)N2CCc3ccccc3CC2)cc1 | inconclusive [inhibitor, partial curve, poor fit] | –
28 | CN(C)Cc1cc(C(C)(C)c2ccccc2)ccc1O | inconclusive [inhibitor, single point] | –
29 | CSCC[C@@H](CO)NC(=O)[C@H]1O[C@@H](n2ccc(N)nc2=O)[C@H](O)[C@@H]1O | inactive | –
30 | CCc1nc2ccc(C(=O)NCCOc3ccc(OC)cc3)cn2c1N(CC)Cc1cccc(Br)c1 | active: 20.6 µM | –
31 | O=C(NCCc1cccc(F)c1)C1CCCN(c2nc3ccccc3s2)C1 (centres undefined) | active: 23.1 µM | –
32 | COc1ccc(/C=N/N(C)c2cc(=O)n(C)c(=O)[nH]2)cc1OC | inconclusive [inhibitor, single point] | –
33 | COCCNC(=O)/C(C#N)=C/C=C/c1ccccc1 | inconclusive [inhibitor, single point] | –
34 | C=CCn1c(N)c(C(=O)Nc2ccccc2)c2nc3ccccc3nc21 | inconclusive [inhibitor, partial curve, poor fit] | –
35 | COc1cccc(-c2c(C(=O)N/N=C/c3sccc3C)nnn2-c2nonc2N)c1 | inactive | –
36 | C=CC[C@@H](CC(=O)N[C@@H](CO)Cc1ccccc1)C(=O)N[C@H](COC(=O)[C@@H](CC=C)CC(=O)OC(C)(C)C)Cc1c[nH]c2ccccc12 | active: 3.66 µM | –
37 | O=C(CN1C(=O)CSc2cc(S(=O)(=O)N3CCCCCC3)ccc21)NCCc1ccccc1 | inconclusive [inhibitor, single point] | –
38 | CCc1nc(Nc2cccc(OC)c2)c2oc3ccccc3c2n1 | inconclusive [inhibitor, single point] | –
39 | Cc1ccc2nc(-c3ccc(-c4cccc(Cl)c4)cc3)c(NCc3ccccc3)n2c1 | inconclusive [inhibitor, single point] | –
40 | CCCCNc1cc(N2CCN(C3CCCCC3)CC2)c2noc3c2c1C(=O)c1ccccc1-3 | active: 5.17 µM | –
41 | CCOC(=O)C1CCCN(C(=S)NC(=O)c2cc(Br)ccc2Cl)C1 (centres undefined) | inactive | –
42 | CCOC(=O)CC1COCCN1C(=O)c1cc(COc2ccc(F)cc2Cl)on1 (centres undefined) | inconclusive [inhibitor, partial curve] | –
43 | CCCCC(=O)N1CCN(c2nc3c(C)c(C)ccc3s2)CC1 | active: 18.4 µM | –
44 | CC1CCN(CC(=O)Nc2ccc(C(=O)N3CCCCC3)cc2)CC1 | inconclusive [inhibitor, full curve, poor fit] | –
45 | Cc1ccc(SCCC(=O)N/N=C/c2ccccc2O)cc1 | active: 1.3 µM | –
46 | CC(C)(C)c1ccc(C(=O)N2CCC(=O)N(C(COCc3ccccc3)Cc3ccccc3)CC2)cc1 (centres undefined) | active: 20.6 µM | –

Row | SMILES | Potency | activity change, negative = growth inhibition
47 | O=C(NCc1ccccn1)c1cc(-c2ccc(Cl)cc2)oc1C(F)(F)F | inconclusive [inhibitor, single point] | –
48 | CCCn1c2ccccc2c2nnc(SCCN3CCOCC3)nc21 | inconclusive [inhibitor, single point] | –
49 | CCOC(=O)N1CCN(Cc2cn[nH]c2-c2ccc(-c3ccccc3)cc2)CC1 | inactive | –
50 | CCNC(=S)N1CCn2cccc2C1c1ccc(F)cc1 (centres undefined) | inconclusive [inhibitor, single point] | –
51 | C=CC(COCc1ccccc1)N(CC(=O)OC)S(=O)(=O)c1cc(Br)ccc1OC (centres undefined) | active: 25.9 µM | –
52 | Nc1cc([N+](=O)[O-])ccc1Nc1ccc(O)cc1 | inconclusive [inhibitor, partial curve, poor fit] | –
53 | O=C(C1CC(=O)N(c2ccc(Cl)cc2)C1)N1CCC(c2nc3ccccc3[nH]2)CC1 (centres undefined) | inconclusive [inhibitor, single point] | –
54 | CCc1cc(-c2nnn(CCC3COCCO3)c2CC)cc(CC)c1-c1cn(Cc2ccccc2)nn1 (centres undefined) | inconclusive [inhibitor, single point] | –
55 | CCOC(=O)C1CCCN(Cc2c(C(=O)N3CCCCC3)nc3c(C)cccn23)C1 (centres undefined) | inconclusive [inhibitor, partial curve] | –
56 | COc1ccccc1NC(=O)C(C)OC(=O)CC1CCCC1 (centres undefined) | inactive | –
57 | Cc1cc(C)c(NC(=O)CSc2cn(CC(=O)N3CCOCC3)c3ccccc23)c(C)c1 | inactive | –
58 | CCOc1ccccc1N1CCN(C(=O)CNC(=O)c2ccc(OC)c(OC)c2)CC1 | inconclusive [inhibitor, single point] | –
59 | Cc1cc(=O)n2[nH]c(Nc3cccc(Cl)c3)nc2n1 | inactive | –
60 | CCN1CCN(C(=O)c2ccc3c(c2)N(Cc2ccc(Cl)cc2)C(=O)c2ccccc2S3=O)CC1 (centres undefined) | inconclusive [inhibitor, single point] | –
61 | O=C(CN1CCCCC1)Nc1ccc(S(=O)(=O)NC2CCCCC2)cc1 | inconclusive [inhibitor, partial curve, poor fit] | –
62 | CCOc1ccc(NC(=O)c2oc3ccccc3c2NC(=O)Cc2cccs2)cc1 | – | inconclusive: -32.2% [inhibitor]
63 | COc1ccc2nc3cc(Cl)ccc3c(Nc3cc(C(C)C)c(O)cc3C)c2c1 | inconclusive [inhibitor, single point] | –
64 | CCOc1cccc(CN2CCC(N3CCC(C(=O)NCC4CCCO4)CC3)CC2)c1 (centres undefined) | inactive | –
65 | Cc1oc2ncn(CC(C)C)c(=O)c2c1C(=O)NCCCN1CCCCC1C (centres undefined) | inactive | –
66 | COc1cccc(Cn2c(=O)n(CC3CCC(C(=O)N4CCOCC4)CC3)c(=O)c3sccc32)c1 (centres undefined) | active: 20.6 µM | –
67 | Cn1c(=O)c2cc(NC(=O)Cc3cccc4ccccc34)ccc2n1-c1ccccc1 | active: 20.6 µM | –
68 | Cc1ccc(C2=NNC(c3cccc(F)c3)S2)cc1 (centres undefined) | inactive | –
69 | COc1ccc2nc(N3CCN(C(=O)c4ccc5ncsc5c4)CC3)sc2c1 | inconclusive [inhibitor, partial curve] | –
